These results are taken from publication PMC8174033.

By UniProt entry, the sequences of proteins in these tests, tags left out. Where a name states a change or a piece, a line headed by the entry shows the natural chain unless it says otherwise. Residues count along the entry.
UniProt Q14194: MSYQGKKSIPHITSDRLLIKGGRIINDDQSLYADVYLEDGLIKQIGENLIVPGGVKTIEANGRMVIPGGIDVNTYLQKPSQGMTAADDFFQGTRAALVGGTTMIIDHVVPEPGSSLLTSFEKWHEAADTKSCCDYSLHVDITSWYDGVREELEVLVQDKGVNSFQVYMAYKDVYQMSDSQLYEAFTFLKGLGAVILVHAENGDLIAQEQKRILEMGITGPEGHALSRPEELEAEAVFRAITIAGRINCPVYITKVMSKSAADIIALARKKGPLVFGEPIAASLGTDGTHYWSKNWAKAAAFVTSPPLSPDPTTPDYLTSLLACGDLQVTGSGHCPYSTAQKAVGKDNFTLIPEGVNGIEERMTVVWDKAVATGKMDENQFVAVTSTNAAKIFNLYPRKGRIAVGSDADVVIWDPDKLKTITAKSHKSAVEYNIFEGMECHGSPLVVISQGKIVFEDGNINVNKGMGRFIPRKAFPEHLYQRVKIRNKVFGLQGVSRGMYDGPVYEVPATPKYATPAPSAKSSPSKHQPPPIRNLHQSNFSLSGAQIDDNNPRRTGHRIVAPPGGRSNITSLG
UniProt P70206, residues 28-1242: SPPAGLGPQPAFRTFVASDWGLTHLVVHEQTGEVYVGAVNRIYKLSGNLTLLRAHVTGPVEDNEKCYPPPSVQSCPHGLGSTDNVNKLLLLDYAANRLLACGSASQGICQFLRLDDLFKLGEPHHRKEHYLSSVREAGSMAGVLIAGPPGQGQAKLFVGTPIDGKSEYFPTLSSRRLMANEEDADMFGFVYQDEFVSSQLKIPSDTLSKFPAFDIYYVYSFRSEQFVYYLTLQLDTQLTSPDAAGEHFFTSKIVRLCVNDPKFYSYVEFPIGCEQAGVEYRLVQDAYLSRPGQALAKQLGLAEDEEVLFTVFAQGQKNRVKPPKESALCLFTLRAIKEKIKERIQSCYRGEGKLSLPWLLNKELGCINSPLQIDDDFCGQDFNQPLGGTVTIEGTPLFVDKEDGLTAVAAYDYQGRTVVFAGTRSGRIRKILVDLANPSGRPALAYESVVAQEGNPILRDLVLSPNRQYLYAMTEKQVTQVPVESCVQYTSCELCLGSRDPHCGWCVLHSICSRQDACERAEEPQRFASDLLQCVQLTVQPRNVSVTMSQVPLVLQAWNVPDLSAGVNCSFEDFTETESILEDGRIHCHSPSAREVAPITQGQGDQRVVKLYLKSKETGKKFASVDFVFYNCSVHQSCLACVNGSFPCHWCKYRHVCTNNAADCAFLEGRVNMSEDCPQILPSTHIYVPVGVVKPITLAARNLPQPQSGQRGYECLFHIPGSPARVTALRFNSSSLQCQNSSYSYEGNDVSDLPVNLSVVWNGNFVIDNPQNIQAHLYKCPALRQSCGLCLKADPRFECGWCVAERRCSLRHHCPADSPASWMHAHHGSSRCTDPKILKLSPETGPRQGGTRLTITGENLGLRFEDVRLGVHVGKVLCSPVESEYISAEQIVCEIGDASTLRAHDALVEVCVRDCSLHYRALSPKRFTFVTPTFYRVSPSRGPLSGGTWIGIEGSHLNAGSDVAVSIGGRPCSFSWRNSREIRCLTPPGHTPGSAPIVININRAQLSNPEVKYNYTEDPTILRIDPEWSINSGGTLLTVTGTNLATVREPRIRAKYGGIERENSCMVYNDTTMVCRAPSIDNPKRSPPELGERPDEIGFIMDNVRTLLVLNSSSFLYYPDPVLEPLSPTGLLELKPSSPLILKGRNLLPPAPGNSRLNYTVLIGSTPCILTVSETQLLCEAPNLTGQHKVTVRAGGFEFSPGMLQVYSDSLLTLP

Numbering of substitutions follows the chain as printed. These are yes or no findings as the source states them, for the method shown. In cells and extracts the contact can be indirect. Some entries that bind do so weakly or less than the wild type. For part of these data: Where a sequence is shown, tags or fusion partners need not be part of it.

In assay [1] the target is T1, fasciculation and elongation protein zeta 1 (FEZ1), full-length, FLAG-tagged (UniProt Q99689).
T1 sequence: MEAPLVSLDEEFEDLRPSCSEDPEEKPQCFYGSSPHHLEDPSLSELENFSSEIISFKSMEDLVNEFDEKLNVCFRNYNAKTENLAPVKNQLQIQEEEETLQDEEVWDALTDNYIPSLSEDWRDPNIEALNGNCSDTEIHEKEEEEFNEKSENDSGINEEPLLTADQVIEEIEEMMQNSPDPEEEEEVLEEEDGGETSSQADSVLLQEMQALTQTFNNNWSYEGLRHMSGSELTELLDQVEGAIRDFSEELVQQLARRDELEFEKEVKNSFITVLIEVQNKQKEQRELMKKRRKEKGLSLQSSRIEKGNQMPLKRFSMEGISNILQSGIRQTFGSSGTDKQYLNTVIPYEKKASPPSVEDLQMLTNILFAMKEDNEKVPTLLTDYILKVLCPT
As to the kind of experiment: co-IP; HEK293 cells expressing three proteins together (FLAG-FEZ1, mCherry-Nrp1, EmGFP-PlxnA1 ED); HEPES lysis buffer with 1% Triton X-100; IP with α-FLAG; immunoblot. For orientation: Immunoblotting shows a protein as a band on a membrane.

Assay [2] addresses T1, fasciculation and elongation protein zeta 1 (FEZ1), full-length, FLAG-tagged. As to the kind of experiment: co-IP; HEK293 cells co-expressing the two tagged proteins, 24 h after transfection; lysis and washes in 50 mM HEPES, 150 mM NaCl, 1 mM EDTA, 1% Triton X-100, pH 7.2; IP with α-FLAG and Protein A/G agarose at 4°C; immunoblot.
The target in assay [3] is T2, FEZ1 S58A phosphomutant, EmGFP-tagged (UniProt Q99689).
T2 sequence: T1 sequence with S58A
As to the kind of experiment: co-IP; HEK293 cells co-expressing the two tagged proteins, 24 h after transfection; lysis and washes in 50 mM HEPES, 150 mM NaCl, 1 mM EDTA, 1% Triton X-100, pH 7.2; GFP-Trap agarose beads 1-3 h at 4°C; immunoblot.

The target in assay [4] is T3, fasciculation and elongation protein zeta 1 (FEZ1), full-length, EmGFP-tagged (UniProt Q99689).
T3 sequence: T1 sequence
The description is as above.

Assay [5] has as its target FEZ1 (amino acids 1-308), EmGFP-tagged (UniProt Q99689). The assay is described as above.
Assay [6] deals with T4, FEZ1 S316A phosphomutant, EmGFP-tagged (UniProt Q99689).
T4 sequence: T1 sequence with S316A
The assay is described as above.

In assay [7] the target is T5, FEZ1 QUAD phosphomutant (S58A, S134A, S301A, S316A), EmGFP-tagged (UniProt Q99689).
T5 sequence: T1 sequence with S58A, S134A, S301A, S316A
The assay is described as above.

The target in assay [8] is T6, FEZ1 (amino acids 1-220), EmGFP-tagged (UniProt Q99689).
T6 sequence: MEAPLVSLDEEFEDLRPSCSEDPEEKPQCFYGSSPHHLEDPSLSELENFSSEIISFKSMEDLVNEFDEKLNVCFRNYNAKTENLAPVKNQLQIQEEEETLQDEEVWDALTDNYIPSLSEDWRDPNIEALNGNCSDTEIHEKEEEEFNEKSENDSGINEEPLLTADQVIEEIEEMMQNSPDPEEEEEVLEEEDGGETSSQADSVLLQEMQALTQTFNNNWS
The description is as above.

In assay [9] the target is T7, FEZ1 (amino acids 131-210), EmGFP-tagged (UniProt Q99689).
T7 sequence: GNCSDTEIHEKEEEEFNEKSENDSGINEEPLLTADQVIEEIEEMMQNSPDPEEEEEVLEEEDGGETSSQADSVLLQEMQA
Described as above.

In the case of “neuropilin 1 (Nrp1), mCherry-tagged (from UniProt P97333 22-923) (receptor)”, the binding result in assay [1] is “binds”.
As for “CRMP1 (amino acids 1-462), N-terminal and central amidohydrolase family domain, EmGFP-tagged (from UniProt Q14194 1-462) (domain or fragment)”, in assay [2], the binding entry is “binds”.
For the substance “CRMP1 (amino acids 465-572), C-terminal region, EmGFP-tagged (from UniProt Q14194 465-572) (domain or fragment)”, the binding entry in assay [2] is reported as “binds”.
With “collapsin response mediator protein 1 (CRMP1), full-length, EmGFP-tagged (from UniProt Q14194 1-572)”, the binding entry in [2] was “binds”.
As to “Plexin A1 extracellular domain, EmGFP-tagged (from UniProt P70206 28-1242) (domain or fragment)”, in [1], the binding entry is listed as “binds”.
For the substance “collapsin response mediator protein 1 (CRMP1), full-length, FLAG-tagged (from UniProt Q14194 1-572)”, the binding result in [3] is given as “binds”; in assay [4], “binds”; in assay [5] it was “binds”; in assay [6], “binds”; in assay [7] it was “binds”; in assay [8] it was “no binding”. Further, the binding entry in [9] is on record as “no binding”.
